The list shows a part of the results. Sequences were assembled here from the parent chain. Values near 0.05 are background.
B1: TEV protease; numbered along this chain (parent)
chain: MGESLFKGPRDYNPISSSICHLTNESDGHTTSLYGIGFGPFIITNKHLFRRNNGTLVVQSLHGVFKVKDTTTLQQHLVDGRDMIIIRMPKDFPPFPQKLKFREPQREERICLVTTNFQTKSMSSMVSDTSCTFPSGDGIFWKHWIQTKDGQCGSPLVSTRDGFIVGIHSASNFTNTNNYFTSVPKNFMELLTNQEAQQWVSGWRLNADSVLWGGHKVFMVKPEEPFQPVKEATQL

Variants of: B1
Assay: raw area under fraction-flipped curve 0-4 h after induction (AUC4h, not background-subtracted), DNA-recorder readout of cleavage of the substrate (dimensionless); higher = more cleavage of the substrate by the protease variant
Conditions: temperature: 34 °C; time window: 0-4 h after rhamnose induction
Description: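 In vivo DNA recorder in E. coli TOP10(DE3) ΔrhaA at 34 °C. Each TEVp single-site mutant (parent TEVp 0) is paired with a single-site variant of the 7-mer TEVs (canonical ENLYFQ|S). The substrate sits between flexible linkers in a Bxb1-sfGFP-TEVs-SsrA fusion, so cleavage stabilises Bxb1 and speeds flipping of a recombination array, read by NGS. The value is the raw area under the fraction-flipped curve over 0-4 h after rhamnose induction (AUC4h), with ≥20 reads per time point. It is not background-subtracted; inactive controls average about 0.047.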
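Note: Bxb1 expression induced with 0.2% (w/v) L-rhamnose at OD600 near 0.5, cultures sampled hourly, flipped fraction per protease–substrate barcode pair counted by paired-end Illumina sequencing.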

Row | Variant | area with substrate ENLDFQS | area with substrate ENLFFQS | area with substrate ENLGFQS | area with substrate ENLHFQS | area with substrate ENLNFQS | area with substrate ENLWFQS | area with substrate ENLEFQS | area with substrate ENLKFQS | area with substrate ENLRFQS | area with substrate ENLSFQS
1 | D79C | 0.0651 | 0.0684 | 0.058 | 0.0752 | 0.0757 | 0.0645 | – | – | – | –
2 | D79Y | 0.0481 | 0.0666 | – | 0.064 | 0.0681 | – | 0.061 | 0.0616 | 0.0745 | –
3 | D69A | 0.0513 | 0.0781 | – | – | – | – | – | 0.0796 | – | 0.0738
4 | Q59E | 0.081 | – | – | 0.0554 | – | – | 0.0814 | 0.0572 | 0.0373 | 0.0547
5 | K90T | 0.0604 | 0.0863 | – | 0.0637 | 0.068 | 0.0758 | 0.0568 | – | 0.0719 | 0.0706
6 | S209M | 0.0553 | 0.085 | – | 0.0614 | – | – | 0.0553 | 0.096 | 0.0802 | 0.0546
7 | I84M | 0.0637 | 0.086 | – | 0.0682 | 0.063 | – | 0.0629 | 0.086 | 0.0523 | –
8 | K100P | 0.0556 | 0.0845 | 0.0669 | 0.0625 | 0.0676 | 0.0754 | 0.066 | 0.0767 | – | 0.0685
9 | T71S | 0.0565 | – | – | – | 0.0648 | 0.0681 | – | – | – | 0.0731
10 | L190I | 0.0484 | 0.0955 | – | 0.0685 | 0.0558 | 0.0725 | 0.0702 | 0.0887 | – | –
11 | S60I | 0.0654 | 0.0723 | 0.0682 | – | 0.069 | 0.0651 | – | – | 0.0688 | 0.0759
12 | Q197H | 0.0575 | – | – | – | 0.0559 | – | 0.0679 | 0.0743 | 0.0806 | 0.0544
13 | D82S | 0.0561 | 0.0611 | – | – | 0.0476 | – | – | – | – | 0.0484
14 | W203F | 0.0603 | 0.0858 | – | 0.0523 | – | 0.102 | 0.0618 | 0.0983 | – | 0.0603
15 | L61Y | 0.0634 | 0.0875 | 0.0716 | 0.0696 | 0.0418 | – | 0.0737 | 0.0586 | 0.0512 | 0.081
16 | M188K | 0.0631 | 0.0808 | – | – | 0.0607 | 0.062 | 0.0692 | – | – | –
17 | M188V | 0.0412 | 0.0624 | – | – | 0.0637 | 0.0494 | 0.0599 | 0.0761 | – | –
18 | P94L | 0.0685 | 0.138 | – | 0.0787 | – | – | – | – | – | 0.0833
19 | S171W | – | – | – | – | – | – | – | 0.0687 | – | –
20 | Y34M | 0.0618 | 0.0724 | – | – | 0.0593 | – | 0.0679 | – | – | 0.0557

Row | Variant | area with substrate ENLDFQS | area with substrate ENLFFQS | area with substrate ENLGFQS | area with substrate ENLHFQS | area with substrate ENLNFQS | area with substrate ENLWFQS | area with substrate ENLEFQS | area with substrate ENLKFQS | area with substrate ENLRFQS | area with substrate ENLSFQS
21 | Y34P | 0.0368 | – | – | 0.0556 | 0.0586 | – | – | 0.055 | 0.0525 | 0.0612
22 | Y34T | 0.072 | 0.065 | – | – | 0.0729 | 0.0713 | – | – | – | –
23 | L5I | 0.0452 | 0.0807 | – | – | – | – | – | – | – | –
24 | N178P | 0.0751 | 0.0773 | – | – | 0.064 | 0.0479 | – | – | 0.0724 | –
25 | L99T | 0.0524 | 0.116 | – | – | – | 0.0722 | 0.0633 | 0.0807 | – | 0.0607
26 | D161N | – | 0.0774 | 0.0666 | 0.0534 | 0.0425 | – | 0.0709 | 0.0534 | – | 0.0544
27 | H215Y | 0.0566 | 0.0647 | – | 0.0634 | 0.0662 | – | 0.0444 | 0.0499 | 0.0691 | –
28 | T72I | 0.0663 | – | – | 0.0386 | 0.0667 | – | 0.0804 | – | – | 0.0717
29 | T72L | 0.056 | – | – | – | – | 0.066 | – | 0.093 | – | 0.0322
30 | L191R | 0.0423 | 0.0504 | – | 0.0565 | 0.0514 | 0.0503 | 0.0605 | 0.0648 | 0.0502 | 0.053
31 | V57P | 0.0632 | 0.0414 | – | 0.0368 | – | 0.0438 | 0.033 | 0.0475 | – | 0.0436
32 | V58I | 0.0507 | 0.089 | – | 0.0785 | – | – | 0.0417 | 0.085 | 0.0996 | 0.0713
33 | V58W | 0.0481 | – | – | 0.051 | – | – | – | – | – | –
34 | V58Y | 0.0482 | 0.0682 | – | – | 0.0535 | 0.0465 | 0.0493 | 0.0576 | – | –
35 | T181W | – | 0.0653 | – | 0.0557 | 0.0648 | 0.0606 | – | – | – | –
36 | F38S | 0.0472 | 0.0649 | 0.076 | 0.052 | 0.0669 | 0.0541 | – | 0.0702 | 0.0629 | 0.0523
37 | R51E | 0.0628 | 0.0721 | 0.0752 | 0.0624 | 0.0714 | – | 0.0753 | 0.0731 | 0.0108 | 0.0716
38 | R51V | 0.0568 | 0.1 | 0.0508 | 0.062 | 0.0285 | 0.0483 | 0.071 | 0.0653 | 0.0696 | 0.0706
39 | D91Y | 0.0581 | 0.0719 | 0.0551 | 0.0543 | – | – | – | 0.0634 | – | 0.0596

Same assay, conditions: temperature: 34 °C; time window: 0-4 h after rhamnose induction

Row | Variant | area with substrate ENLIFQS | area with substrate ENLPFQS | area with substrate ENLLFQS | area with substrate ENLCFQS | area with substrate ENLMFQS | area with substrate ENLQFQS | area with substrate ENLVFQS | area with substrate ENLTFQS
40 | Q59E | 0.085 | 0.0655 | – | – | – | – | – | –
41 | K90T | – | 0.0482 | 0.0833 | – | – | – | – | –
42 | S209M | 0.0777 | 0.0636 | 0.0788 | 0.0746 | 0.0613 | 0.0695 | – | –
43 | I84M | – | 0.0673 | 0.0635 | – | – | 0.0683 | – | –
44 | K100P | 0.0718 | 0.0704 | 0.0488 | – | – | 0.0753 | – | –
45 | L190I | – | 0.0694 | 0.0633 | 0.0713 | – | – | 0.0892 | –
46 | S60I | – | 0.0587 | – | – | – | 0.0703 | – | –
47 | Q197H | – | – | 0.0735 | 0.109 | 0.0458 | – | – | –
48 | D82S | 0.0661 | – | – | – | – | 0.0734 | – | –
49 | W203F | – | 0.0505 | – | 0.0688 | – | – | – | –
50 | L61Y | – | 0.0576 | 0.0838 | – | – | – | – | –
51 | M188K | – | 0.061 | 0.0543 | 0.0765 | 0.058 | – | – | 0.0802
52 | M188V | – | 0.0696 | 0.0938 | 0.0433 | 0.0717 | 0.0724 | 0.0814 | –
53 | P94L | – | 0.0628 | 0.0611 | – | – | – | – | –
54 | S171W | – | – | 0.0573 | 0.0708 | – | – | 0.0559 | –
55 | Y34M | – | 0.0484 | – | – | – | 0.0546 | – | –
56 | Y34T | 0.0617 | 0.0616 | – | – | – | – | – | –

Row | Variant | area with substrate ENLIFQS | area with substrate ENLPFQS | area with substrate ENLLFQS | area with substrate ENLCFQS | area with substrate ENLMFQS | area with substrate ENLQFQS | area with substrate ENLVFQS | area with substrate ENLTFQS
57 | L5I | – | 0.0608 | 0.0898 | – | 0.0708 | 0.137 | – | 0.0728
58 | N178P | – | 0.028 | – | 0.0479 | – | – | – | –
59 | L99T | – | – | – | – | 0.0851 | – | – | –
60 | D161N | – | 0.0247 | 0.0657 | 0.0648 | – | 0.0574 | 0.055 | –
61 | H215Y | 0.0578 | – | – | 0.0607 | – | 0.0684 | 0.0564 | –
62 | T72I | 0.0898 | – | – | – | – | – | 0.081 | –
63 | T72L | – | – | – | – | – | – | – | 0.0663
64 | L191R | 0.0634 | 0.0643 | – | 0.0515 | 0.071 | 0.0389 | – | –
65 | V57P | – | 0.0278 | – | – | – | – | – | –
66 | V58I | – | – | – | – | – | 0.0592 | – | –
67 | V58W | – | – | 0.0396 | – | – | – | – | –
68 | V58Y | 0.0622 | 0.0803 | – | – | – | 0.0502 | – | –
69 | T181W | 0.055 | – | – | 0.0518 | – | – | – | –
70 | F38S | 0.0632 | 0.0725 | – | – | 0.0651 | 0.072 | – | 0.053
71 | R51E | – | – | – | – | – | – | 0.0869 | 0.0765
72 | R51V | – | – | 0.0847 | – | 0.0688 | 0.0605 | – | –
73 | D91Y | – | – | – | – | 0.0745 | 0.0684 | – | –
